Reference: the supplement of paper PMC3334620
Over roughly 33,000 sequences, “E-score (-0.5 to 0.5)” has its median near -0.012; the highest 2% begin near 0.29. The list shows a part of the results.

Target: T1, Ybr033w (UniProt P38073)
T1 sequence: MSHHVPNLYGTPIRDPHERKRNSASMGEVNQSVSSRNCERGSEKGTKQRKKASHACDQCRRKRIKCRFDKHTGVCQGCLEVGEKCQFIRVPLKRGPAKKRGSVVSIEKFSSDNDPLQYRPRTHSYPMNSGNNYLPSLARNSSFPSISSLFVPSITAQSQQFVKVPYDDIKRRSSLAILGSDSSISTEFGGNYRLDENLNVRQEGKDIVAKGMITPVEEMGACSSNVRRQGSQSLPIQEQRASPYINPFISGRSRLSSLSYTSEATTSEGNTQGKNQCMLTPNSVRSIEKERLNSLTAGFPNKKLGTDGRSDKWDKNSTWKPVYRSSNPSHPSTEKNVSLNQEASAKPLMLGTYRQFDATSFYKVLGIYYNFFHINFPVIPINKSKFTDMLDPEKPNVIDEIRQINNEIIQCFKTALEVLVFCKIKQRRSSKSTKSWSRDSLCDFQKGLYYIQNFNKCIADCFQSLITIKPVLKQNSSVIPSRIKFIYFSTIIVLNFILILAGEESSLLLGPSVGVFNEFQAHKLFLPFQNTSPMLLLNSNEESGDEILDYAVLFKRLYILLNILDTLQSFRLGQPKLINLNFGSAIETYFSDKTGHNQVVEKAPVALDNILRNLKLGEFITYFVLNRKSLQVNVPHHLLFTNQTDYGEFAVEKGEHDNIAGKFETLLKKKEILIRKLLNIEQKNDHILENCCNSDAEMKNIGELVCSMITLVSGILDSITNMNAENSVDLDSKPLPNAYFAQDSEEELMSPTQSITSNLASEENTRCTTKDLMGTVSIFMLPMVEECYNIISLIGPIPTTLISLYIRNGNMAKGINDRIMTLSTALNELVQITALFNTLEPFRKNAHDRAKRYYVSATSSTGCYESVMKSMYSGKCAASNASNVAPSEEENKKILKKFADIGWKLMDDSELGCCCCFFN
Assay: PBM E-score (8-mer binding enrichment) (E-score (-0.5 to 0.5)); higher = stronger / more preferred TF binding; most listed sequences are background and not binding sites
Conditions: protein concentration: 200 nM; construct: GST-full length
Description: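 Universal 'all 10-mer' protein binding microarrays (Agilent AMADID 015681) probed with GST-tagged S. cerevisiae TFs (full-length or DBD) made by in vitro transcription/translation (PURExpress), about 100-200 nM. Bound TF was detected with fluorescent anti-GST. Each ungapped 8-mer (which stands for itself and its reverse complement) is scored by the PBM enrichment score (E-score), a modified Wilcoxon-Mann-Whitney statistic from -0.5 to +0.5, computed with the Universal PBM Analysis Suite. Scale: above 0.35 generally sequence-specific binding.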

Sequence	PBM E-score
GGACCCAC	-0.194
CACGAGCG	-0.244
GACAAAGA	0.0789
GGCACAAA	-0.103
CAGTGTAA	0.0746
CTTCTCCC	-0.19
AGTCTCGA	-0.0775
GTCCAGCA	-0.142
CTGATACC	0.0344
TCGCGTAA	0.131
CGGCGCTC	-0.185
GACTCATA	0.0307
AGAAATCG	0.0381
ATAATACG	0.187
CACTCACG	-0.14
ACATACTG	-0.0193
CAGGCCCG	-0.336
AACGGAAA	0.241
CGGTGCTC	-0.0954
CGCGAAAA	0.0499
CTTTTGAA	0.173
CCTAATCG	0.0171
CTTGGAGA	0.006
AAGTCTCA	-0.223
AACGCATC	-0.0699

Sequence	PBM E-score
CTAATGAA	0.266
AAAGATAG	-0.0366
AGTTAAGC	-0.085
ACTAACAC	0.0136
GCGGGTCA	-0.109
AGCCGTTA	0.073
CACCCGCG	0.0598
CGGGCAGC	-0.187
GCCGCGGA	-0.12
CTAGTCAG	-0.169
GAGACTAA	0.114
AGATGGTC	-0.132
TATTCCCA	0.199
CAGAGTCA	-0.194
GGCCCTAA	-0.0545
CGGATCCG	-0.0883
TATAGGGA	-0.00128
CCCCGTTA	-0.184
CAGCCCAG	-0.298
AGGAGGTC	-0.171
AACGCTCT	-0.191
AACTACGG	-0.104
CGATCTTC	-0.0203
GTACTGAC	0.0973
GCGATTCC	-0.0306

Sequence	PBM E-score
ACATACCT	0.128
CTTACAAG	-0.0896
AAATTTGA	0.276
ACCGCAGT	-0.0133
GAGCCCGA	-0.103
ACCGACCC	-0.32
AACCACTG	0.0233
AAAAGGAC	-0.00479
CCGAACCA	-0.167
TCGGAGCA	-0.128
AAATGCCG	0.13
AATGATTC	0.306
CCCTCTAC	-0.314
ACCTGAGA	0.0174
AGCCCGCA	-0.222
CAAACGGC	-0.146
CCGGCATC	-0.225
AAGCTGAC	-0.0245
CCTGTGAC	-0.118
ATTGAAGG	-0.0954
AGCGTAGC	-0.0434
GAGATTGC	-0.111
GCAGAGTA	-0.0501
CTCCGCCC	-0.16
CCTTCGTC	-0.0862

Sequence	PBM E-score
GAGTATTA	0.222
AATAGCGG	0.0696
CGTAATCA	0.243
CCGCCCCA	-0.0138
AGTGTCTA	0.107
ACTCCCCA	-0.0256
GTGGCAAC	-0.111
ATGGGTAA	0.138
CTTACTCC	0.141
CAACACCG	-0.222
CTATAGTC	-0.0918
AACCGTAT	-0.175
ATTCCTCG	0.0857
AAGAGTAA	0.125
ACTTACAA	0.265
CCTAAGGA	-0.0239
AGGCGACT	-0.205
CCCTATGC	-0.234
ACTTCGGA	0.261
AGAAAGCG	-0.0188
ACATCTAT	0.253
CTCCAGAA	-0.0883
CTCGGGGA	-0.153
AAGACATA	0.168
AACAAGTC	0.0761

Sequence	PBM E-score
AGCACCCC	-0.353
GGACATAA	0.0846
AGTGATGA	0.0446
GTGAGTTA	0.031
CGCGGGAA	0.0225
CCGCCGAA	0.0143
ACCCAGGC	-0.0962
GGAGATCA	-0.082
CAACTGAA	-0.057
ATGGGGCA	-0.292
AGTATTAA	0.295
CTCGCAAG	-0.0951
CTCGCCCC	-0.265
ATAATAAG	0.18
TAGTAAGA	0.0907
AGGCTAAC	-0.0289
CCTCACTC	-0.0615
CGGCGGTC	-0.25
CAACACCC	-0.24
GTGTTGTA	0.0656
CCACCTTA	-0.0643
CAGTGTCC	-0.191
GTCAGGAA	0.132
GTAAAATA	0.269
AACCGGCT	-0.0092

Sequence	PBM E-score
ACGCTGAT	-0.0697
ATAGCTTG	-0.0519
AATGAGCG	0.128
CGATATCC	-0.00469
ACGGCGTC	-0.256
CGTATAAC	0.0815
GCGTCCAC	-0.187
AATTGGTG	0.0971
ATACTGCC	0.116
CATTTCCA	0.144
GCTTAAAA	0.0832
GGTATGGA	-0.143
AACAACCA	0.272
CTCCATCC	-0.2
CATCACGG	-0.0912
ACGCGTAG	-0.0909
GGATCTAC	-0.00883
ATACAAGA	0.043
CGATGTAA	0.147
AACTGACC	-0.187
AAGGTGCT	-0.145
CCCAATGA	-0.126
TCGAAAGA	0.128
GACTAGGC	-0.179
CTAAGCAC	0.115

Sequence	PBM E-score
CGGGCCAC	-0.29
CCATCCTA	0.00436
ACTAGTGA	-0.0863
ATTAACCC	0.237
TAGAATCA	-0.116
CTCCCTTA	-0.181
CCCATGTC	-0.0375
GCCCAAGC	-0.104
CACGGGAC	-0.0333
AATGCGAC	0.1
GCTTGGAC	-0.137
AGTAGCGC	0.022
GGTCGCCA	-0.227
CTAAATTA	0.173
GCAGCCGC	-0.121
AAAACTTG	0.19
CACTGTCC	-0.106
GTACTTTA	0.0353
CCCAGCCG	-0.179
CTCTCCGC	-0.0619
CATTTGAA	0.0768
AACTGATA	0.0823
